Consider three molecules from US20250263491A1, “ANTI-EGFR ANTIBODY DRUG CONJUGATES” (priority 2016, published 2025).

Where a chain is given by its changes, count along the chain named.

The labels stand for the following.
B1: AbG-AAA (conjugate)
heavy: EVQLQESGPGLVKPSQTLSLTCTVSGYSISNDFAWNWIRQLPGKGLEWMGYISYKGNTRYQPSLKSRITISRDTSKNQFFLKLNSVTAADTATYYCVTASRGLPYWGQGTLVTVSS[here human IgG1 constant region without letters]
light: DIQMTQSPSSMSVSVGDRVTITCHSSQDITYNIGWLQQKPGKSFKGLIYHGANLDDGVPSRFSGSGSGTDYTLTISSLQPEDFATYYCVQYDEFPWTFGGGTKLEIKRTVAAPSVFIFPPSDEQLKSGTASVVCLLNNFYPREAKVQWKVDNALQSGNSQESVTEQDSKDSTYSLSSTLTLSKADYEKHKVYACEVTHQGLSSPVTKSFNRGEC
B2: AbK-AAA (conjugate)
heavy: B1 heavy with N31R, L41P, K55N, L103F, Y105W
light: B1 light with I33V, A52S, D56H, E93D
B3: AbK-CZ (conjugate)
heavy: B1 heavy with N31R, L41P, K55N, L103F, Y105W
light: B1 light with I33V, A52S, D56H, E93D

One data set has as its system Mcl-1−/− MEFs expressing huEGFR. In words: Cell viability (CellTiter-Glo) of mcl-1-/- MEFs expressing huEGFR. The conditions noted are these: 96 hours treatment, read-out: huEGFR+ mcl-1−/− MEF EC50. The format is cell-based, mouse. The text has this: (§1) The cytotoxicity of the anti-EGFR antibodies AbB, AbG, AbK, and AbL as Bcl-xL ADCs against the EGFR positive non-small cell lung cancer cells (NCI-H1650) was compared to non-targeting MSL109 isotype matched exemplary ADCs. To further evaluate the in vitro efficacy of these exemplary EGFR-targeted Bcl-xL-ADCs, human EGFR was over-expressed in mcl-1^−/− mouse embryonic fibroblasts (MEFs). Mcl-1 refers to the gene myeloid cell leukemia 1. Mcl-1^−/− MEFs are dependent upon Bcl-xL for survival (Lessene et al., 2013, Nature Chemical Biology 9:390-397).
(§2) Retroviral supernatants were produced through transfection of the GP2-293 packaging cell line (Clontech) with the retroviral construct pLVC-IRES-Hygro (Clontech) containing huEGFR sequence or the empty vector utilizing FuGENE 6 transfection reagent (Roche Molecular Biochemicals, Mannheim, Germany). After 48 hours of culture, virus-containing supernatant was harvested and applied to mcl-1^−/− MEFs in 75 cm^2 culture flasks (0.5×10^6 per flask) for a further 48 hours in the presence of polybrene (8 μg/ml; Sigma). Mcl-1^−/− MEFs were washed and selected after 3 days with 250 µg/ml hygromycin B (Invitrogen) in the full complement of media. The expression of huEGFR was confirmed by flow cytometry and compared to the parental cell line or those transfected with the empty vector.
(§3) Mcl-1^−/− MEFs expressing huEGFR or the pLVX empty vector (Vct Ctrl) were treated with AB033-targeted Bcl-xL-ADCs, AB033 alone or MSL109-targeted Bcl-xL-ADCs for 96 hours in DMEM containing 10% FBS. For the assay, the cells were plated at 250 cells per well in 384-well tissue culture plates (Corning, Corning, NY) in a total volume of 25 μL of assay media (DMEM and 10% HI FBS). The plated cells were treated with a 4-fold serial dilution of the Antibody Drug Conjugates of interest from either 1 μM or 0.5 μM to either 1 50 μM or 25 μM, respectively 1 μM to 1 μM dispensed by an Echo 550 Acoustic Liquid Handler (Labcyte). Each concentration was tested in at least three replicates for the Mcl-1^−/− MEF huEGFR cell line and for the Mcl-1^−/− MEF vector cell line. The fraction of viable cells following 96 hours of Antibody Drug Conjugate treatment at 37° C. and 5% CO2 was determined using the CellTiter-Glo Luminescent Cell Viability Assay according to the manufacturer's recommendations (Promega Corp., Madison, WI). The plates were read in a Perkin Elmer Envision using a Luminescence protocol with 0.1 see integration time. The replicate values for each dilution point were averaged and the EC50 values for the Antibody Drug Conjugates were generated by fitting the data with GraphPad Prism 5 (GraphPad Software, Inc.) to a sigmoidal curve model using linear regression, Y=((Bottom-Top)/(1+((x/K)^n)))+Top, where Y is the measured response, x is the compound concentration, n is the Hill Slope and K is the EC50 and Bottom and Top are the lower and higher asymptotes respectively. Visual inspection of curves was used to verify curve fit results. Mcl-1^−/− MEFs were obtained from David C. S. Huang of the Walter and Eliza Hall Institute of Medical Research.
Background: ATP-based viability assays read luminescence as a measure of living cells.
B1: the EC50 stood at 220 nM.

As for B2, the EC50 is 3.4 nM.

With B3, the EC50 stood at 0.1 nM.

For the next data set, the system named is Mcl-1−/− MEF vector cell line (pLVX empty vector, Vct Ctrl). Kind of data set: Cell viability (CellTiter-Glo) of mcl-1-/- MEF vector control. The conditions noted are these: 96 hours treatment. The format is cell-based, mouse.
Excerpt: as §1, §2, §3
Molecule B1 returned an EC50 greater than 500 nM.

As for B2, the EC50 is greater than 1000 nM.

Turning to B3, the EC50 is greater than 500 nM.

Test system in the next data set: not listed separately
Kind of data set: Size exclusion chromatography, % aggregate fraction of ADC. The format is physicochemical. The conditions noted are these: absorbance at 280 nm. On the procedure: The DAR and percentage aggregation of exemplary ADCs synthesized as described in Example 3, above, were determined by LC-MS and size exclusion chromatography (SEC), respectively.
Size exclusion chromatography (SEC) was performed using a Shodex KW802.5 column in 0.2M potassium phosphate pH 6.2 with 0.25 mM potassium chloride and 15% isopropyl alcohol at a flow rate of 0.75 ml/min. The peak area absorbance at 280 nm was determined for each of the high molecular weight and monomeric eluents by integration of the area under the curve. The % aggregate fraction of the conjugate sample was determined by dividing the peak area absorbance at 280 nm for the high molecular weight eluent by the sum of the peak area absorbances at 280 nM of the high molecular weight and monomeric eluents multiplied by 100%.
In general terms: Size exclusion chromatography separates by hydrodynamic size, large species first.
With B1, the “% Agg (by SEC)” value came out at 17.5%.

As to B2, the “% Agg (by SEC)” value stood at 20.4%.

Turning to B3, the “% Agg (by SEC)” value is given as 3.3%.

The next data set concerns NCI-H1650 xenograft. Kind of data set: NCI-H1650 flank xenograft model of NSCLC in mice. Type of data set: in vivo, mouse. The conditions noted are these: Table 10; 10 mg/kg/day QDx1/IP.
Molecule B1 had a TGImax of 76%.

B2 gave a TGImax of 84%.

As to B3, the TGImax amounted to 77%.

Another data set concerns NCI-H1650 cells. In words: NCI-H1650 eGFP spheroid growth (GFP fluorescence and CellTiter-Glo 3D). Type of data set: cell-based. The conditions noted are these: spheroids, 6 days, CellTiter-Glo 3D luminescence.
Excerpt: as §1
NCI-H1650 cells stably overexpressing eGFP were maintained in RPMI media (Invitrogen cat #22400) containing 10% Fetal Bovine Serum (Invitrogen cat #10082). The cells were removed from plates with Trypsin and plated at 300 cells/well in 25 μL of the same media in Corning 384 well spheroid plates (cat #3830). The plates were centrifuged at 500×g for 5 minutes and placed in an Essen INCUCYTE Zoom Live Cell Analysis System in a 37° C. with 5% CO2 and 95% humidity. The cells were allowed to form spheroids for 3 days before dosing with an equal volume of the antibody drug conjugates at 2× the indicated concentration. The spheroids were incubated for an additional 6 days while monitoring growth and GFP Fluorescence in the Incucyte Zoom prior to addition of 40 μL of Promega CELLTITER-GLO 3D (cat #G968B) and subsequent luminescent reading. IC50s were determined from both the final GFP fluorescence monitored by the Incucyte Zoom (referred to as “H1650 GFP Fluorescence EC50 (μg/mL)” in Table 8) and the chemiluminescent readings from the CellTiter-Glo reagent (referred to as “H1650 CTG-3D EC50 (μg/mL)” in Table 8).
B1: the “H1650 CTG-3D EC50” value worked out at 0.12 µg/mL.

Consider B2, for which the “H1650 CTG-3D EC50” value was 0.11 µg/mL.

B3: the “H1650 CTG-3D EC50” value amounted to 0.08 µg/mL.

Still in this data set, the particulars now being: spheroids, 6 days, final GFP fluorescence (Incucyte Zoom).
For the molecule B1, the “H1650 GFP Flourescence EC50” value is 0.17 µg/mL.

B2: the “H1650 GFP Flourescence EC50” value was determined as 0.16 µg/mL.

Consider B3, for which the “H1650 GFP Flourescence EC50” value worked out at 0.21 µg/mL.
